In patent US10048253B2, “Method for identifying compounds of therapeutic interest” (UCB PHARMA S.A., priority 2012, dated 2018):

How the values were obtained:
IgE-Fc [1] = biological target: T1, IgE-Fc (Homo sapiens, UniProt P01854, N146Q/N252Q); assay: ITC of Fab binding to IgE-Fc
T1 construct: made in house
Method: Experiments were carried out using a Microcal iTC200 calorimeter (GE Healthcare) at 20° C. in PBS buffer pH 7.4. Depending on the final ratio required, 25-30 μM of protein was used in the calorimeter cell and 10-20 fold higher concentrations were used in the syringe. The number and volume of injections were varied as appropriate. Heats of dilution were subtracted from the data before analysis. […] Analyses were carried out using MicroCal Origin, using a 1:1 binding model when IgE-Fc or Fcε3-4 was titrated into Fab, or a sequential 1:1 binding model when Fab was titrated into IgE-Fc or Fcε3-4.
One way to establish experimentally that IgE-Fc adopts an extended structure as it flips between two bent conformations, is to determine the number of Fab binding sites that are available for binding: if rigidly and exclusively bent, only one site will initially be accessible, but if it can flip, then two sites are accessible. We therefore studied the interaction between Fab and IgE-Fc by isothermal titration calorimetry (ITC) and compared with the binding to Fcε3-4 which, lacking the Cε2 domains, always has two accessible sites.

IgE binding to FcεRIα = IgE binding to FcεRIα (Homo sapiens, UniProt P01854); assay: Inhibition of binding of IgE to FcεRIα by surface plasmon resonance
Method: Anti-human IgE antibodies were generated using UCB proprietary core antibody discovery technology. The isolated V-region genes were sub cloned in the human IgG1 Fab format for subsequent expression and purification. The Fab was transiently expressed in CHO cells and purified by Protein G affinity chromatography followed by size exclusion chromatography. The ability of the Fab to inhibit the binding of IgE (Uniprot reference P01854) to FcεRIα (Uniprot reference P12319) was determined by surface plasmon resonance.

IgE-Fc [2] = biological target: IgE-Fc (Homo sapiens, UniProt P01854, E170C); assay: Intramolecular FRET of labelled IgE-Fc (unbending) on titration of anti-IgE Fab; format: biochemical
Method: Intramolecular FRET was carried out using IgE-Fc(E289C)_BirA (IgE-Fc with the BirA recognition motif added to the C-terminus and biotinylaated according to the manufacturer's instructions (Avidity)) labeled with thiol reactive terbium chelate (Invitrogen) and streptavidin labeled with amine reactive Alexa488 (Invitrogen), each according to the manufacturer's instructions. Terbium labeled IgE-Fc and Alexa488 labeled streptavidin were mixed in equi-molar ratios (FAC 25 nM) with anti-IgE Fab titrated from 30 uM in PBS and incubated for 120 minutes at room temperature. FRET was measured on an Analyst LJL-HT (excitation 200 nm, emission 485 and 520 nm, each at 10 nm slit width) and plotted as a function of Fab concentration.
In envisaging the mechanism of formation of the Fab^1|IgE-Fc|Fab^2 complex, the question remains: does binding of Fab^1 trap IgE-Fc in an extended conformation or can it still flex between the extended and bent structures? These two alternatives can be discriminated using intra-molecular FRET (Förster Resonance Energy Transfer). […] Here, we titrated Fab into IgE-Fc labelled with donor and acceptor fluorophores in the Cε2 and Cε4 domains respectively, to observe whether unbending (detected by a decrease in the FRET signal) occurs upon engagement of Fab^1 or Fab^2.
Further antibodies were generated which were able to inhibit IgE binding to its receptor FcεRIα. Of these, six were all able to unbend IgE to different degrees as determined by FRET analysis conducted using the method described in Example 2 above for Fab7. The affinities of these six antibodies were also determined (Table 3).

T1 sequence (P01854 106-428 isoform P01854-1 N146Q/N252Q limits assumed): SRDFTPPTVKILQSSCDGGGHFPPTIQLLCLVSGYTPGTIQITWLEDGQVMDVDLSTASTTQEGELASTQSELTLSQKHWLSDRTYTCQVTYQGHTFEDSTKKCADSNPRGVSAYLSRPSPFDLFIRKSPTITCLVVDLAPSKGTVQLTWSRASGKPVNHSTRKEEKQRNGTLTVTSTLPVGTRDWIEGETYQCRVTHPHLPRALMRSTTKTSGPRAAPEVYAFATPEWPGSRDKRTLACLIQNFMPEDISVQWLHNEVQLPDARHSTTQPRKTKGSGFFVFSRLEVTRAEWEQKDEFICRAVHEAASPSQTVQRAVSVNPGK
Sequence of IgE-Fc (Homo sapiens, UniProt P01854, E170C) (P01854 106-428 isoform P01854-1 E170C limits assumed): as the sequence (P01854 106-428 isoform P01854-1 N146Q/N252Q limits assumed) above, with Q41N, E65C, Q147N counted along it
Sequence of IgE binding to FcεRIα (P01854 1-428 isoform P01854-1): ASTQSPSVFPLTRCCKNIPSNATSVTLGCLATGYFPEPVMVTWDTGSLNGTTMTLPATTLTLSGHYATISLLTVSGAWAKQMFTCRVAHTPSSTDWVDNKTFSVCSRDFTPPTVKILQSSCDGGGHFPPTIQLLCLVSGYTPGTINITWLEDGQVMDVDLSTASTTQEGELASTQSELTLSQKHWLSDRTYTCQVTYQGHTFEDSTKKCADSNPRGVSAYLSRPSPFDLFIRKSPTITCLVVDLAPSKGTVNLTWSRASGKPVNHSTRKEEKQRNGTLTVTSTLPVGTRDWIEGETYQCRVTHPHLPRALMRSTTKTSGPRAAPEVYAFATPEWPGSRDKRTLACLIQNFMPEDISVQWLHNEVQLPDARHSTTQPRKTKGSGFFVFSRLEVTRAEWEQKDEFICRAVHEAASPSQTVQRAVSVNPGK

Kd (IgE-Fc [1]; 2Fab|1IgE-Fc, Fab titrated into IgE-Fc, sequential model, second Fab (2:1), read-out: Kd ITC): 1500 nM
Kd (IgE-Fc [1]; Fab titrated into IgE-Fc, stoichiometry Fab:IgE-Fc 1:1, read-out: Kd): 76 nM
Kd (IgE-Fc [1]; IgE-Fc titrated into Fab, read-out: Kd): 70 nM
inhibition of IgE binding to FcεRIα (IgE binding to FcεRIα): achieves inhibition of this interaction
normalised FRET mean (IgE-Fc [2]; [Fab] 0.152 nM, [Fab]/[Fc] 0.00608): 1
normalised FRET mean (IgE-Fc [2]; [Fab] 0.45 nM, [Fab]/[Fc] 0.018): 0.2
normalised FRET mean (IgE-Fc [2]; [Fab] 1.37 nM, [Fab]/[Fc] 0.0548): 1.55
normalised FRET mean (IgE-Fc [2]; [Fab] 4.4 nM, [Fab]/[Fc] 0.176): 0.1
normalised FRET mean (IgE-Fc [2]; [Fab] 12.3 nM, [Fab]/[Fc] 0.492): 2
normalised FRET mean (IgE-Fc [2]; [Fab] 37.03 nM, [Fab]/[Fc] 1.4812): 9.675
normalised FRET mean (IgE-Fc [2]; [Fab] 111 nM, [Fab]/[Fc] 4.44): 28.775
normalised FRET mean (IgE-Fc [2]; [Fab] 333 nM, [Fab]/[Fc] 13.32): 39.275
normalised FRET mean (IgE-Fc [2]; [Fab] 1000 nM, [Fab]/[Fc] 40): 43.375
normalised FRET mean (IgE-Fc [2]; [Fab] 3000 nM, [Fab]/[Fc] 120, IgE-Fc 25 nM, 120 minutes room temperature): 41.05
B1: Fab7: Fab fragment of a novel IgG binding human IgE-Fc and inhibiting its interaction with FcεRIα; SEQ ID NO: 2 and 4, FIG. 14 (antibody)
heavy: MEWIWIFLFLLSVTTGVHSQVQLQQSGPGLVKPSQTLSLTCGISGDSVSSNSAAWNWLRQSPSRGLEWLGRTYYRSKWYNDYAVSMKSRITINPDTSRNQFSLQLNSVTPEDTAVYYCARDGEISYDYYYYGMDVWGRGTLVTVSSASTKGPSVFPLAPSSKSTSGGTAALGCLVKDYFPEPVTVSWNSGALTSGVHTFPAVLQSSGLYSLSSVVTVPSSSLGTQTYICNVNHKPSNTKVDKKVEPKSC
light: MDWSPLLLTLLAHCTGSWAQSVLTQPPSASGTPGQRVTISCSGSSSNIGNNGVNWYQQVPGKPPKLLIYYDDLLPSGVSDRFSGSKSGTSASLAISGLQSEDEADYYCEAWDDSLDGVVFGGGTKLTVLGQPKAAPSVTLFPPSSEELQANKATLVCLISDFYPGAVTVAWKADSSPVKAGVETTTPSKQSNNKYAASSYLSLTPEQWKSHRSYSCQVTHEGSTVEKTVAPTECS
modifications: FAB7 Heavy Chain Amino Acid; FAB7 Light Chain Polynucleotide
unbending of IgE-Fc detected by FRET (IgE-Fc [2]; in words): decrease in FRET clearly occurred only upon binding of Fab^2

Read-outs that look alike come from different tables or passages of the source.
